# Data: the supplement of paper PMC8728848
# Some of the results follow.
# B1: DC-ASGPR L+GEE (Homo sapiens) (protein)
# chain: MTRTYENFQYLENKVKVQGFKNGPLPLQSLLQRLRSGPCHLLLSLGLGLLLLVIICVVGFQNSKFQRDLVTLRTDFSNFTSNTVAEIQALTSQGSSLEETIASLKAEVEGFKQERQAGVSELQEHTTQKAHLGHCPHCPSVCVPVHSEMLLRVQQLVQDLKKLTCQVATLNNNGEEASTEGTCCPVNWVEHQDSCYWFSHSGMSWAEAEKYCQLKNAHLVVINSREEQNFVQKYLGSAYTWMGLSDPEGAWKWVDGTDYATGFQNWKPGQPDDWQGHGLGGGEDCAHFHPDGRWNDDVCQRPYHWVCEAGLGQTSQESH
# Key:
# Assay in all cases: glycan array binding signal (z-score within array); higher = stronger binding
# Conditions in all cases: glycan notation: IUPAC condensed, linker removed
# [1] = target: Fuc(a1-2)Gal(b1-4)GlcNAc(b1-3)Gal(b1-4)GlcNAc(b1-2)Man(a1-3)[Fuc(a1-2)Gal(b1-4)GlcNAc(b1-3)Gal(b1-4)GlcNAc(b1-2)Man(a1-6)]Man(b1-4)GlcNAc(b1-4)GlcNAc
# Outline: (§1)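 The binding signal is a Z-score computed within each array. Data were drawn from 3228 arrays in the Consortium for Functional Glycomics database, restricted to those with a known protein sequence. Scores were averaged over arrays of the same protein sequence at different concentrations or buffers, and over linkers, and negative values can be taken as non-binding.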
# [2] = target: Fuc(a1-2)Gal(b1-4)GlcNAc(b1-3)Gal(b1-4)GlcNAc(b1-3)Gal(b1-4)GlcNAc
# Outline: as §1
# [3] = target: Fuc(a1-2)Gal(b1-4)GlcNAc(b1-3)GalNAc
# Outline: as §1
# [4] = target: Fuc(a1-2)Gal(b1-4)GlcNAc(b1-3)[Fuc(a1-2)Gal(b1-4)GlcNAc(b1-6)]GalNAc
# Outline: as §1
# [5] = target: Fuc(a1-2)Gal(b1-4)GlcNAc(b1-3)[Fuc(a1-3)[Gal(b1-4)]GlcNAc(b1-6)]Gal(b1-4)Glc
# Outline: as §1
# [6] = target: Fuc(a1-2)Gal(b1-4)GlcNAc(b1-6)GalNAc
# Outline: as §1
# [7] = target: Fuc(a1-2)Gal(b1-4)GlcNAc6S
# Outline: as §1
# [8] = target: Fuc(a1-2)Gal(b1-4)[Fuc(a1-3)]GlcNAc
# Outline: as §1
# [9] = target: Fuc(a1-2)Gal(b1-4)[Fuc(a1-3)]GlcNAc(b1-2)Man(a1-3)[Fuc(a1-2)Gal(b1-4)[Fuc(a1-3)]GlcNAc(b1-2)Man(a1-6)]Man(b1-4)GlcNAc(b1-4)[Fuc(a1-6)]GlcNAc
# Outline: as §1
# [10] = target: Fuc(a1-2)Gal(b1-4)[Fuc(a1-3)]GlcNAc(b1-2)[Fuc(a1-2)Gal(b1-4)[Fuc(a1-3)]GlcNAc(b1-4)]Man(a1-3)[Fuc(a1-2)Gal(b1-4)[Fuc(a1-3)]GlcNAc(b1-2)Man(a1-6)]Man(b1-4)GlcNAc(b1-4)GlcNAc
# Outline: as §1
# [11] = target: Fuc(a1-2)Gal(b1-4)[Fuc(a1-3)]GlcNAc(b1-3)Gal(b1-4)[Fuc(a1-3)]GlcNAc
# Outline: as §1
# [12] = target: Fuc(a1-2)Gal(b1-4)[Fuc(a1-3)]GlcNAc(b1-3)Gal(b1-4)[Fuc(a1-3)]GlcNAc(b1-3)Gal(b1-4)[Fuc(a1-3)]GlcNAc
# Outline: as §1
# [13] = target: Fuc(a1-2)Gal(b1-4)[Fuc(a1-3)]GlcNAc(b1-3)GalNAc
# Outline: as §1
# [14] = target: Fuc(a1-2)Gal(b1-4)[Fuc(a1-3)]GlcNAc(b1-3)[Neu5Ac(a2-6)Gal(b1-4)GlcNAc(b1-6)]Gal(b1-4)Glc
# Outline: as §1
# [15] = target: Fuc(a1-2)Gal3S(b1-4)GlcNAc
# Outline: as §1
# [16] = target: Fuc(a1-2)Gal6S(b1-3)GlcNAc
# Outline: as §1
# [17] = target: Fuc(a1-2)Gal6S(b1-3)GlcNAc6S
# Outline: as §1
# Fuc(a1-2)Gal6S(b1-4)Glc = target: Fuc(a1-2)Gal6S(b1-4)Glc
# Outline: as §1
# [18] = target: Fuc(a1-2)Gal6S(b1-4)Glc6S
# Outline: as §1
# Fuc(a1-2)[Gal(a1-3)]Gal = target: Fuc(a1-2)[Gal(a1-3)]Gal
# Outline: as §1
# [19] = target: Fuc(a1-2)[Gal(a1-3)]Gal(b1-3)GalNAc
# Outline: as §1
# [20] = target: Fuc(a1-2)[Gal(a1-3)]Gal(b1-3)GalNAc(b1-3)Gal(a1-4)Gal(b1-4)Glc
# Outline: as §1
# [21] = target: Fuc(a1-2)[Gal(a1-3)]Gal(b1-3)GlcNAc
# Outline: as §1
# [22] = target: Fuc(a1-2)[Gal(a1-3)]Gal(b1-3)GlcNAc(b1-2)Man(a1-3)[Fuc(a1-2)[Gal(a1-3)]Gal(b1-3)GlcNAc(b1-2)Man(a1-6)]Man(b1-4)GlcNAc(b1-4)GlcNAc
# Outline: as §1
# [23] = target: Fuc(a1-2)[Gal(a1-3)]Gal(b1-3)GlcNAc(b1-2)Man(a1-3)[Fuc(a1-2)[Gal(a1-3)]Gal(b1-3)GlcNAc(b1-2)Man(a1-6)]Man(b1-4)GlcNAc(b1-4)[Fuc(a1-6)]GlcNAc
# Outline: as §1
# [24] = target: Fuc(a1-2)[Gal(a1-3)]Gal(b1-3)GlcNAc(b1-3)GalNAc
# Outline: as §1
# [25] = target: Fuc(a1-2)[Gal(a1-3)]Gal(b1-3)GlcNAc(b1-6)GalNAc
# Outline: as §1
# [26] = target: Fuc(a1-2)[Gal(a1-3)]Gal(b1-4)Glc
# Outline: as §1
# [27] = target: Fuc(a1-2)[Gal(a1-3)]Gal(b1-4)GlcNAc
# Outline: as §1
# [28] = target: Fuc(a1-2)[Gal(a1-3)]Gal(b1-4)GlcNAc(b1-2)Man
# Outline: as §1
binder,measurement,setting,value
B1,glycan array binding signal (z-score),[1],0.538
same,glycan array binding signal (z-score),[2],-0.176
same,glycan array binding signal (z-score),[3],0.17
same,glycan array binding signal (z-score),[4],0.128
same,glycan array binding signal (z-score),[5],-0.08
same,glycan array binding signal (z-score),[6],2.17
same,glycan array binding signal (z-score),[7],-0.553
same,glycan array binding signal (z-score),[8],-0.075
same,glycan array binding signal (z-score),[9],-0.285
same,glycan array binding signal (z-score),[10],0.202
same,glycan array binding signal (z-score),[11],-0.128
same,glycan array binding signal (z-score),[12],-0.412
same,glycan array binding signal (z-score),[13],-0.112
same,glycan array binding signal (z-score),[14],-0.436
same,glycan array binding signal (z-score),[15],-0.315
same,glycan array binding signal (z-score),[16],-0.455
same,glycan array binding signal (z-score),[17],0.136
same,glycan array binding signal (z-score),Fuc(a1-2)Gal6S(b1-4)Glc,-0.468
same,glycan array binding signal (z-score),[18],-0.532
same,glycan array binding signal (z-score),Fuc(a1-2)[Gal(a1-3)]Gal,-0.567
same,glycan array binding signal (z-score),[19],-0.285
same,glycan array binding signal (z-score),[20],-0.318
same,glycan array binding signal (z-score),[21],-0.3
same,glycan array binding signal (z-score),[22],0.307
same,glycan array binding signal (z-score),[23],-0.55
same,glycan array binding signal (z-score),[24],-0.214
same,glycan array binding signal (z-score),[25],2.67
same,glycan array binding signal (z-score),[26],0.073
same,glycan array binding signal (z-score),[27],-0.715
same,glycan array binding signal (z-score),[28],0.292
